# Results: the supplement of paper PMC8728848
# The other results are listed elsewhere or left out.
# B1: Als3-N (Candida albicans) (protein)
# chain: KTITGVFNSFNSLTWSNAATYNYKGPGTPTWNAVLGWSLDGTSASPGDTFTLNMPCVFKFTTSQTSVDLTAHGVKYATCQFQAGEEFMTFSTLTCTVSNTLTPSIKALGTVTLPLAFNVGGTGSSVDLEDSKCFTAGTNTVTFNDGGKKISINVDFERSNVDPKGYLTDSRVIPSLNKVSTLFVAPQCANGYTSGTMGFANTYGDVQIDCSNIHVGITKGLNDWNYPVSSESFSYTKTCSSNGIFITYKNVPAGYRPFVDAYISATDVNSYTLSYANEYTCAGGYWQRAPFTLRWTGYRNSDAGSNGIVIVATTRTVTDSTTAVTTLPFDPNRDKTKTIEILKPIPTTTITTSYVGVTTSYLTKTAPIGETATVIVDIPYHTTTTVTSKWTGTITSTTTHTNPTDSIDTVIVQVP
# What was measured:
# Test in all cases: glycan array binding signal (z-score within array); higher = stronger binding
# Conditions in all cases: glycan notation: IUPAC condensed, linker removed
# [1] = target: GlcNAc(b1-2)[GlcNAc(b1-4)]Man(a1-3)[GlcNAc(b1-4)][GlcNAc(b1-2)Man(a1-6)]Man(b1-4)GlcNAc(b1-4)GlcNAc
# Outline: (§1)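 From the Consortium for Functional Glycomics database, 3228 arrays were curated, keeping only those whose protein sequence was available. Binding is given as a within-array Z-score averaged across arrays sharing a protein sequence and across linkers. Negative Z-scores can be read as non-binding.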
# [2] = target: GlcNAc(b1-2)[GlcNAc(b1-4)]Man(a1-3)[GlcNAc(b1-4)][GlcNAc(b1-2)[GlcNAc(b1-6)]Man(a1-6)]Man(b1-4)GlcNAc(b1-4)GlcNAc
# Outline: as §1
# [3] = target: GlcNAc(b1-2)[GlcNAc(b1-4)]Man(a1-3)[GlcNAc(b1-4)][GlcNAc(b1-2)[GlcNAc(b1-6)]Man(a1-6)]Man(b1-4)GlcNAc(b1-4)[Fuc(a1-6)]GlcNAc
# Outline: as §1
# [4] = target: GlcNAc(b1-2)[GlcNAc(b1-6)]Man(a1-6)[GlcNAc(b1-2)Man(a1-3)]Man(b1-4)GlcNAc(b1-4)GlcNAc
# Outline: as §1
# [5] = target: GlcNAc(b1-2)[GlcNAc(b1-6)]Man(a1-6)[GlcNAc(b1-2)Man(a1-3)]Man(b1-4)GlcNAc(b1-4)[Fuc(a1-6)]GlcNAc
# Outline: as §1
# [6] = target: GlcNAc(b1-2)[GlcNAc(b1-6)]Man(a1-6)[GlcNAc(b1-4)][GlcNAc(b1-2)Man(a1-3)]Man(b1-4)GlcNAc(b1-4)GlcNAc
# Outline: as §1
# GlcNAc(b1-3)Fuc = target: GlcNAc(b1-3)Fuc
# Outline: as §1
# GlcNAc(b1-3)Gal = target: GlcNAc(b1-3)Gal
# Outline: as §1
# [7] = target: GlcNAc(b1-3)Gal(b1-3)GalNAc
# Outline: as §1
# GlcNAc(b1-3)Gal(b1-4)Glc = target: GlcNAc(b1-3)Gal(b1-4)Glc
# Outline: as §1
# [8] = target: GlcNAc(b1-3)Gal(b1-4)GlcNAc
# Outline: as §1
# [9] = target: GlcNAc(b1-3)Gal(b1-4)GlcNAc(b1-2)Man(a1-3)[GlcNAc(b1-3)Gal(b1-4)GlcNAc(b1-2)Man(a1-6)]Man(b1-4)GlcNAc(b1-4)GlcNAc
# Outline: as §1
# [10] = target: GlcNAc(b1-3)Gal(b1-4)GlcNAc(b1-2)Man(a1-3)[GlcNAc(b1-3)Gal(b1-4)GlcNAc(b1-2)Man(a1-6)]Man(b1-4)GlcNAc(b1-4)[Fuc(a1-6)]GlcNAc
# Outline: as §1
# [11] = target: GlcNAc(b1-3)Gal(b1-4)GlcNAc(b1-2)[GlcNAc(b1-3)Gal(b1-4)GlcNAc(b1-6)]Man(a1-6)[GlcNAc(b1-3)Gal(b1-4)GlcNAc(b1-2)Man(a1-3)]Man(b1-4)GlcNAc(b1-4)GlcNAc
# Outline: as §1
# [12] = target: GlcNAc(b1-3)Gal(b1-4)GlcNAc(b1-3)Gal(b1-4)GlcNAc
# Outline: as §1
# [13] = target: GlcNAc(b1-3)Gal(b1-4)GlcNAc(b1-3)Gal(b1-4)GlcNAc(b1-2)Man(a1-3)[GlcNAc(b1-3)Gal(b1-4)GlcNAc(b1-3)Gal(b1-4)GlcNAc(b1-2)Man(a1-6)]Man(b1-4)GlcNAc(b1-4)GlcNAc
# Outline: as §1
# [14] = target: GlcNAc(b1-3)Gal(b1-4)GlcNAc(b1-3)Gal(b1-4)GlcNAc(b1-2)Man(a1-3)[GlcNAc(b1-3)Gal(b1-4)GlcNAc(b1-3)Gal(b1-4)GlcNAc(b1-2)Man(a1-6)]Man(b1-4)GlcNAc(b1-4)[Fuc(a1-6)]GlcNAc
# Outline: as §1
# [15] = target: GlcNAc(b1-3)Gal(b1-4)GlcNAc(b1-3)Gal(b1-4)GlcNAc(b1-2)[GlcNAc(b1-3)Gal(b1-4)GlcNAc(b1-3)Gal(b1-4)GlcNAc(b1-6)]Man(a1-6)[GlcNAc(b1-3)Gal(b1-4)GlcNAc(b1-3)Gal(b1-4)GlcNAc(b1-2)Man(a1-3)]Man(b1-4)GlcNAc(b1-4)[Fuc(a1-6)]GlcNAc
# Outline: as §1
# [16] = target: GlcNAc(b1-3)Gal(b1-4)GlcNAc(b1-3)Gal(b1-4)GlcNAc(b1-3)Gal(b1-4)GlcNAc(b1-2)Man(a1-3)[GlcNAc(b1-3)Gal(b1-4)GlcNAc(b1-3)Gal(b1-4)GlcNAc(b1-3)Gal(b1-4)GlcNAc(b1-2)Man(a1-6)]Man(b1-4)GlcNAc(b1-4)GlcNAc
# Outline: as §1
# [17] = target: GlcNAc(b1-3)Gal(b1-4)GlcNAc(b1-3)Gal(b1-4)GlcNAc(b1-3)Gal(b1-4)GlcNAc(b1-2)Man(a1-3)[GlcNAc(b1-3)Gal(b1-4)GlcNAc(b1-3)Gal(b1-4)GlcNAc(b1-3)Gal(b1-4)GlcNAc(b1-2)Man(a1-6)]Man(b1-4)GlcNAc(b1-4)[Fuc(a1-6)]GlcNAc
# Outline: as §1
# [18] = target: GlcNAc(b1-3)Gal(b1-4)GlcNAc(b1-3)Gal(b1-4)GlcNAc(b1-3)Gal(b1-4)GlcNAc(b1-2)[GlcNAc(b1-3)Gal(b1-4)GlcNAc(b1-3)Gal(b1-4)GlcNAc(b1-3)Gal(b1-4)GlcNAc(b1-6)]Man(a1-6)[GlcNAc(b1-3)Gal(b1-4)GlcNAc(b1-3)Gal(b1-4)GlcNAc(b1-3)Gal(b1-4)GlcNAc(b1-2)Man(a1-3)]Man(b1-4)GlcNAc(b1-4)[Fuc(a1-6)]GlcNAc
# Outline: as §1
# [19] = target: GlcNAc(b1-3)Gal(b1-4)GlcNAc(b1-3)Gal(b1-4)GlcNAc(b1-3)Gal(b1-4)GlcNAc(b1-3)Gal(b1-4)GlcNAc(b1-2)Man(a1-3)[GlcNAc(b1-3)Gal(b1-4)GlcNAc(b1-3)Gal(b1-4)GlcNAc(b1-3)Gal(b1-4)GlcNAc(b1-3)Gal(b1-4)GlcNAc(b1-2)Man(a1-6)]Man(b1-4)GlcNAc(b1-4)GlcNAc
# Outline: as §1
# [20] = target: GlcNAc(b1-3)Gal(b1-4)GlcNAc(b1-3)Gal(b1-4)GlcNAc(b1-3)Gal(b1-4)GlcNAc(b1-3)Gal(b1-4)GlcNAc(b1-2)Man(a1-3)[GlcNAc(b1-3)Gal(b1-4)GlcNAc(b1-3)Gal(b1-4)GlcNAc(b1-3)Gal(b1-4)GlcNAc(b1-3)Gal(b1-4)GlcNAc(b1-2)Man(a1-6)]Man(b1-4)GlcNAc(b1-4)[Fuc(a1-6)]GlcNAc
# Outline: as §1
# [21] = target: GlcNAc(b1-3)Gal(b1-4)GlcNAc(b1-3)Gal(b1-4)GlcNAc(b1-3)Gal(b1-4)GlcNAc(b1-3)Gal(b1-4)GlcNAc(b1-2)[GlcNAc(b1-3)Gal(b1-4)GlcNAc(b1-3)Gal(b1-4)GlcNAc(b1-3)Gal(b1-4)GlcNAc(b1-3)Gal(b1-4)GlcNAc(b1-6)]Man(a1-6)[GlcNAc(b1-3)Gal(b1-4)GlcNAc(b1-3)Gal(b1-4)GlcNAc(b1-3)Gal(b1-4)GlcNAc(b1-3)Gal(b1-4)GlcNAc(b1-2)Man(a1-3)]Man(b1-4)GlcNAc(b1-4)[Fuc(a1-6)]GlcNAc
# Outline: as §1
# [22] = target: GlcNAc(b1-3)Gal(b1-4)GlcNAc(b1-3)Gal(b1-4)GlcNAc(b1-3)GalNAc
# Outline: as §1
# [23] = target: GlcNAc(b1-3)Gal(b1-4)GlcNAc(b1-3)GalNAc
# Outline: as §1
# [24] = target: GlcNAc(b1-3)Gal(b1-4)GlcNAc(b1-3)[GlcNAc(b1-3)Gal(b1-4)GlcNAc(b1-3)]GalNAc
# Outline: as §1
# [25] = target: GlcNAc(b1-3)Gal(b1-4)GlcNAc(b1-6)[Gal(b1-3)]GalNAc
# Outline: as §1
# [26] = target: GlcNAc(b1-3)Gal(b1-4)GlcNAc(b1-6)[GlcNAc(b1-3)Gal(b1-3)]GalNAc
# Outline: as §1
# [27] = target: GlcNAc(b1-3)Gal(b1-4)GlcNAc(b1-6)[GlcNAc(b1-3)]Gal(b1-4)GlcNAc
# Outline: as §1
# GlcNAc(b1-3)GalNAc = target: GlcNAc(b1-3)GalNAc
# Outline: as §1
# GlcNAc(b1-3)Man = target: GlcNAc(b1-3)Man
# Outline: as §1
# [28] = target: GlcNAc(b1-3)[GlcNAc(b1-4)][GlcNAc(b1-6)]GlcNAc
# Outline: as §1
# [29] = target: GlcNAc(b1-3)[GlcNAc(b1-6)]Gal(b1-4)GlcNAc
# Outline: as §1
# [30] = target: GlcNAc(b1-3)[GlcNAc(b1-6)]GalNAc
# Outline: as §1
# [31] = target: GlcNAc(b1-4)Gal(b1-4)GlcNAc
# Outline: as §1
# GlcNAc(b1-4)GlcNAc = target: GlcNAc(b1-4)GlcNAc
# Outline: as §1
# [32] = target: GlcNAc(b1-4)GlcNAc(b1-4)GlcNAc
# Outline: as §1
binder,measurement,setting,value
B1,glycan array binding signal (z-score),[1],-0.205
same,glycan array binding signal (z-score),[2],-0.419
same,glycan array binding signal (z-score),[3],0.63
same,glycan array binding signal (z-score),[4],-0.248
same,glycan array binding signal (z-score),[5],-0.132
same,glycan array binding signal (z-score),[6],-0.17
same,glycan array binding signal (z-score),GlcNAc(b1-3)Fuc,0.444
same,glycan array binding signal (z-score),GlcNAc(b1-3)Gal,-0.306
same,glycan array binding signal (z-score),[7],0.556
same,glycan array binding signal (z-score),GlcNAc(b1-3)Gal(b1-4)Glc,-0.303
same,glycan array binding signal (z-score),[8],-0.277
same,glycan array binding signal (z-score),[9],-0.213
same,glycan array binding signal (z-score),[10],-0.099
same,glycan array binding signal (z-score),[11],0.753
same,glycan array binding signal (z-score),[12],-0.449
same,glycan array binding signal (z-score),[13],3.11
same,glycan array binding signal (z-score),[14],0.106
same,glycan array binding signal (z-score),[15],2.36
same,glycan array binding signal (z-score),[16],-0.109
same,glycan array binding signal (z-score),[17],0.254
same,glycan array binding signal (z-score),[18],3.08
same,glycan array binding signal (z-score),[19],-0.115
same,glycan array binding signal (z-score),[20],0.273
same,glycan array binding signal (z-score),[21],0.074
same,glycan array binding signal (z-score),[22],-0.182
same,glycan array binding signal (z-score),[23],0.072
same,glycan array binding signal (z-score),[24],0.158
same,glycan array binding signal (z-score),[25],-0.116
same,glycan array binding signal (z-score),[26],0.124
same,glycan array binding signal (z-score),[27],-0.082
same,glycan array binding signal (z-score),GlcNAc(b1-3)GalNAc,-0.046
same,glycan array binding signal (z-score),GlcNAc(b1-3)Man,-0.197
same,glycan array binding signal (z-score),[28],-0.289
same,glycan array binding signal (z-score),[29],-0.324
same,glycan array binding signal (z-score),[30],-0.033
same,glycan array binding signal (z-score),[31],-0.165
same,glycan array binding signal (z-score),GlcNAc(b1-4)GlcNAc,-0.22
same,glycan array binding signal (z-score),[32],-0.099
